Data: article PMC6588435 (Cell chemical biology, 2019)

Target: Mtb FDTS (Mycobacterium tuberculosis, UniProt P9WG57)
Experiment: Mtb FDTS NADPH oxidation assay
Type: biochemical
Details: read-out: inhibition of NADPH oxidation activity of Mtb FDTS

Sequence of UniProt P9WG57 (P9WG57 whole entry): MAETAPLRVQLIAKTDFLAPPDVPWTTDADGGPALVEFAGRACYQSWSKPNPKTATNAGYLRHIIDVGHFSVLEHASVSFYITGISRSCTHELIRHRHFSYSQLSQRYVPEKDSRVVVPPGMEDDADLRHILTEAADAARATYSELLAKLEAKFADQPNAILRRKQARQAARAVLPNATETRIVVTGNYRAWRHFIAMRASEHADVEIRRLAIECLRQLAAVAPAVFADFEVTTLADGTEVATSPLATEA

**Q.** How did the inhibition at 200 µM turn out when `CN(Cc1cnc2nc(N)nc(N)c2n1)c1ccc(C(=O)N[C@@H](CCC(=O)O)C(=O)O)cc1` [MTX, Methotrexate] was run?
**A.** ~50%
